Results from article PMC4336329 (PLoS ONE, 2015).
About 14,000 (4.5%) of roughly 310,000 compounds showed an effect of 50% or more. The effect is printed as a negative number. Some of the results follow.

Molecular target: human ether-à-go-go-related gene (hERG) potassium channel (human, UniProt Q12809)
Test: primary screen, population patch clamp on CHO cells stably expressing hERG
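Note: peak tail current of the secondary pulse compared with the same well before compound.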

human ether-à-go-go-related gene (hERG) potassium channel, sequence (Q12809 whole entry, looked up): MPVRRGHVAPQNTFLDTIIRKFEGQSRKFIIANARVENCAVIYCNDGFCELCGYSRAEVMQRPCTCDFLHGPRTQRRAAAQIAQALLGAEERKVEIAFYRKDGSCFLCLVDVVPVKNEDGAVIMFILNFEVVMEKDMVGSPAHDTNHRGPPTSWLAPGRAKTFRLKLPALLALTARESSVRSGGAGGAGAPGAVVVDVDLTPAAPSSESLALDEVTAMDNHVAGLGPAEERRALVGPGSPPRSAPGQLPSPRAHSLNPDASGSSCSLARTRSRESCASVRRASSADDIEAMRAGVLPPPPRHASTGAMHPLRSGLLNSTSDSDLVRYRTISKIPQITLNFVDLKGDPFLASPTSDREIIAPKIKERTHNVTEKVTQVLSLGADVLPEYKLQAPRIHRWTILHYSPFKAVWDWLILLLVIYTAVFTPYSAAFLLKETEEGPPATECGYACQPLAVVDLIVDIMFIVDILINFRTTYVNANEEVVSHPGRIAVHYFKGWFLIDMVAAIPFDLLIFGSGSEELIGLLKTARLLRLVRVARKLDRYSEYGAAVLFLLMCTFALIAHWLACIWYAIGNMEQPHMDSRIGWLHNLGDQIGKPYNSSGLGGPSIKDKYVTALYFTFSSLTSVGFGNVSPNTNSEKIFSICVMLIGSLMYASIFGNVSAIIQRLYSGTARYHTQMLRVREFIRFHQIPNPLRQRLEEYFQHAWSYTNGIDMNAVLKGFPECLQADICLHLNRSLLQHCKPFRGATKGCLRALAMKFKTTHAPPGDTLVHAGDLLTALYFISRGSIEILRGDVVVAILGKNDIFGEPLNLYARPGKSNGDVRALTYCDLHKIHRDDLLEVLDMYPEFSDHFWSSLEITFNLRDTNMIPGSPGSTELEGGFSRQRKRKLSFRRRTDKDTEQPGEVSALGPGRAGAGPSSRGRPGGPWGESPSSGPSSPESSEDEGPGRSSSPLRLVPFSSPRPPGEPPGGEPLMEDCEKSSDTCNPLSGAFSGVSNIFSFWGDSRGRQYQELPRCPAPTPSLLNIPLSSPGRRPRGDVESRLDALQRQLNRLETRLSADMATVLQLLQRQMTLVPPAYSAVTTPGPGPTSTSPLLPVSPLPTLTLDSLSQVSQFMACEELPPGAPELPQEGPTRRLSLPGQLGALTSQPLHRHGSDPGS

| Structure (SMILES) | hERG current change (%, negative = inhibition) at 10uM |
| --- | --- |
| Cc1ccc(C2N(c3ccccn3)C(=O)C3CCCN32)o1 (stereo not shown) | 1.96% |
| CCN(CC)CC1C(=O)N(c2ccc(OC)cc2)C1c1ccccc1 (stereo not shown) | -19.8% |
| C=C1C(O)(c2ccccc2)C2CC[N+]1(C)CC2.[Cl-] (stereo not shown) | 11.7% |
| COc1ccc(-c2nnc(SCC(=O)NCc3cccs3)n2CC(C)C)cc1 | -15.2% |
| O=C(C1CCN(C2CCN(Cc3cccc4c3OCO4)CC2)CC1)N1CCOCC1 | -34.7% |
| CCn1c(SCc2ccccc2)nc2c(c1=O)SCC2 | -26% |
| O=C(CSc1nnc(-c2ccncc2)n1C1CCCCC1)Nc1cccc(O)c1 | -5.93% |
| O=C(Cn1c(C2CC2)nc2ccccc2c1=O)Nc1ccc(Br)cc1 | 3.32% |
| Cc1ccc(NC(=O)c2ccccc2Cl)cc1-n1cnnn1 | -38.9% |
| CC(OC(=O)Cc1coc2ccc3ccccc3c12)C(=O)NC(N)=O (stereo not shown) | 13.8% |
| Fc1ccc(NC(=S)N/N=C/c2ccc(F)c(F)c2)c(F)c1 | 13% |
| NC(=O)c1ccc(NC(=O)CS(=O)(=O)c2cn(CC(=O)N3CCCC3)c3ccccc23)cc1 | -5.79% |
| O=C(O)[C@@H]1CCCN1C(=O)c1ccco1 | 5.4% |
| C=CCCC(=O)Nc1nc(C)c(-c2csc(Nc3cccc(OC)c3)n2)s1 | -20.1% |
| Cc1ccc(-c2ccc(SCC(=O)Nc3ccc4c(c3)OCCO4)nn2)cc1 | -1.55% |
| COc1ccccc1NS(=O)(=O)c1ccc(C(=O)N2CCCC(C)C2)cc1 (stereo not shown) | -2.43% |
| CN(C(=O)Oc1ccc([N+](=O)[O-])cc1)c1ccccc1 | -11.5% |
| N#CCCn1cc(C(=O)Nc2ccc(C(=O)O)cc2)c(-c2ccc([N+](=O)[O-])cc2)n1 | 23.2% |
| O=C(CSc1nnc(NC2CCCCC2)s1)NC1CCS(=O)(=O)C1 (stereo not shown) | -0.507% |
| COc1ccccc1OCCNC(=O)CC(NC(C)=O)c1ccccc1 (stereo not shown) | 26.1% |
| CCCCn1c(N)c(N(CCOC)C(=O)C2CC(=O)N(Cc3ccc(C)cc3)C2)c(=O)[nH]c1=O (stereo not shown) | -13.3% |
| CC(C)(CN1CCCCC1)NS(=O)(=O)c1ccc(Cl)cc1 | -13.4% |
| COC(=O)c1cc(OC)c(OC)cc1N1C(=O)CC(C)(C)CC1=O | 15.4% |
| O=S(=O)(Cc1cc(-c2ccccc2)no1)c1ccccc1 | -2.75% |
| O=C(OCc1ccccc1Cl)C1CC(=O)N(Cc2ccco2)C1 (stereo not shown) | 11.4% |
| CC(C(=O)O)N(C(=O)c1ccccc1)c1ccc(F)c(Cl)c1 (stereo not shown) | 14.4% |
| CCN(CC(=O)Nc1ccccc1C(F)(F)F)C(=O)CSCc1ccc(C)cc1 | 9.52% |
| CCOc1ccccc1C(=O)Nc1cc(C)ccc1NC(=O)c1ccco1 | -75.3% |

| Structure (SMILES) | hERG current change (%, negative = inhibition) at 10uM |
| --- | --- |
| COc1cccc(OCc2cc(/C=N/NC(=O)c3ccn[nH]3)ccc2OC)c1 | 4.71% |
| CCS(=O)(=O)N1Cc2ccccc2CC1C(=O)N(C)CC(=O)Nc1ccc(F)c(F)c1F (stereo not shown) | -8.88% |
| Cc1ccc(NC(=O)C2CCCN(S(=O)(=O)c3cccs3)C2)cc1 (stereo not shown) | 0.928% |
| COc1ccc(CN2CCC(C(=O)c3ccc(Cl)cc3)CC2)cc1 | -78.7% |
| Cc1c(C)n(CCCN(C)C)c2ncnc(Nc3ccccc3)c12 | -29.3% |
| COc1ccc(CCN(Cc2cc3cc(C)cc(C)c3nc2Cl)C(=O)C2CC2)cc1 | 14.5% |
| Cc1ccsc1/C=N/Nc1cccc(C(=O)O)c1 | 15.9% |
| O=C(Nc1ccccc1)c1ccccc1O | 8.51% |
| COc1ccc(C(=O)O)c(OC)n1 | 8.66% |
| O=S(=O)(c1ccc(Cl)cc1)N1CCN(S(=O)(=O)N2CCCCCC2)CC1 | 21.1% |
| O=C1COc2ccc(C(=O)COC(=O)C3CCN(S(=O)(=O)c4cccs4)CC3)cc2N1 | -11% |
| CCCOc1ccc(/C(O)=C2/C(=O)C(=O)N(CCCn3ccnc3)C2c2cccs2)cc1 (stereo not shown) | 34.3% |
| CCCCC1=CC2=C(c3ccco3)C(=O)C(C)(OC(=O)c3ccc(OC)cc3)C(=O)C2=CN1C1CCCC1 (stereo not shown) | -8.17% |
| CCc1nnc(NS(=O)(=O)c2ccc(N3C(=O)c4ccccc4C3=O)cc2)s1 | 18.1% |
| CC(=O)N1CCN(CC(O)Cn2c3ccccc3c3ccccc32)CC1 (stereo not shown) | 7.81% |
| O=C(O)c1ccc(S(=O)(=O)N2CCCCCC2)cc1 | 12.6% |
| Cc1ccnc(NC(=O)c2ccccc2NC(=O)c2ccc(Cl)cc2Cl)c1 | -1.05% |
| CCN1C(=O)/C(=C/C2=Cc3ccccc3OC2C)SC1=S (stereo not shown) | 14.7% |
| Cc1ccc(S(=O)(=O)Nc2ccncc2)c(C)c1N(C)S(=O)(=O)c1ccc(F)cc1 | 12.1% |
| COc1cc(NC(C(=O)Nc2cccc(C(C)=O)c2)c2ccccc2)cc(OC)c1OC (stereo not shown) | -7.54% |
| O=C(c1ccccc1)[C@@H]1[C@@H](C(=O)c2ccc(F)cc2)[C@@]2(C(=O)Nc3ccccc32)[C@H]2c3ccccc3C=CN12 | 1.2% |
| Cc1ccc(S(=O)(=O)NC(C)CCc2ccccc2)cc1C(N)=O (stereo not shown) | -3.11% |
| CCCCN1CCNC[C@@H]1Cc1ccc(O)cc1 | 16% |
| Cn1nnnc1SCC(=O)Nc1nc2c(s1)CCCC2 | -8.16% |
| COc1ccc(Nc2nc(N)nc(CSc3nccc(C)n3)n2)cc1 | 6.43% |
| Cc1ccc(CCNS(=O)(=O)c2ccc3c(c2)NC(=O)CCS3)cc1 | 0.516% |
| COc1ccc(-n2ncc3c(=O)n(CC(=O)OCc4ccccc4)cnc32)cc1 | 15% |
